# In all, about 33,000 sequences were measured (“E-score (-0.5 to 0.5)”: median about -0.056, highest 2% from about 0.38 on). Some of the results follow.
# Molecular target: Stb4 (UniProt P50104)
# Experiment: PBM E-score (8-mer binding enrichment) (E-score (-0.5 to 0.5)); higher = stronger / more preferred TF binding; most listed sequences are background and not binding sites
# Conditions: protein concentration: 200 nM; construct: GST-DNA-binding domain
# Method in brief: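 Yeast transcription factors carrying a GST tag, as full-length proteins or DNA-binding domains, were produced by PURExpress in vitro transcription/translation. About 100-200 nM protein was applied to universal all-10-mer Agilent arrays, double-stranded by primer extension on fresh or once-stripped slides. Bound protein was detected with fluorescent anti-GST, and scans were normalised with masliner. The Universal PBM Analysis Suite gave each ungapped eight-base word, pooled with its reverse complement, an E-score, a modified Wilcoxon-Mann-Whitney statistic.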
row,Sequence,PBM E-score
1,TAAATCAA,-0.0636
2,GATCAGCA,-0.163
3,ATTCGTTC,0.0399
4,GAAAACTC,0.0464
5,ATCTGAGC,0.0161
6,AGAAGGAC,-0.236
7,CTGAGATC,-0.0537
8,CAGTCTTA,-0.142
9,GGCCCGCC,0.145
10,GTTTAGAA,-0.0425
11,GTTCATTA,0.0516
12,AACTAAGC,-0.0964
13,ACCAGGTG,-0.0942
14,GAGACCCA,0.00023
15,GAAAATAA,-0.0829
16,CATTGCTC,0.115
17,TACCTCTA,-0.18
18,CTCCGAGA,0.409
19,CAGGGAGA,-0.266
20,ACGACGGA,0.22
21,AAGTTGGG,-0.258
22,AACTCTGC,-0.141
23,GGAAACTA,0.191
24,ATTTCGCG,0.0954
25,ATTTCAAC,-0.034

row,Sequence,PBM E-score
1,CGAGGCAG,0.174
2,TCATGCGA,-0.129
3,CGTGGTCC,-0.0254
4,CCTATGAC,-0.189
5,GGAGTTAA,0.107
6,ATCAGTGA,-0.19
7,AAAATGCT,-0.0135
8,CGATGTCC,0.178
9,CCACAGGG,-0.23
10,CTGGCGAA,-0.256
11,AAGTCGAG,-0.366
12,AGAAGGTA,-0.141
13,AGTTGAGC,-0.102
14,GACTCCCC,0.00038
15,GCGGCGTA,-0.0358
16,AACCCCAC,-0.0399
17,AACCCCAT,0.0926
18,CAAGCACG,-0.108
19,AACCTTGT,-0.237
20,CAGGGGTA,-0.143
21,CGCTAGCG,0.0809
22,ACCGTCAT,-0.0409
23,ACCACTAG,-0.266
24,CCTCGACG,-0.0338
25,CGGCCCAG,0.18

row,Sequence,PBM E-score
1,TCTTCCCA,-0.148
2,GCGACAGC,0.0009
3,AAGATGCT,0.0731
4,AAGAATGA,-0.171
5,CCCGTCCG,0.177
6,ACTCCAGC,-0.253
7,CCAATCCA,-0.0425
8,ATTAATTA,-0.198
9,AGGAGTGA,-0.213
10,AAACTACC,0.0588
11,CGTTTCGA,-0.229
12,ACGTGGCC,-0.279
13,CAACCCGA,0.33
14,ACATGGCA,-0.17
15,ACATTGTG,-0.137
16,AAACACGG,0.199
17,ACGCGAAG,-0.0329
18,AGAGGGGG,-0.275
19,AGAATTTG,-0.096
20,GTGTCAAC,-0.146
21,AAAGCTGG,-0.129
22,GTAGGAAA,0.00617
23,ATATATAC,0.0281
24,AGCTCCCG,0.27
25,CATTCAAA,0.048

row,Sequence,PBM E-score
1,GCTCCGTA,0.168
2,ATGCAACA,-0.372
3,CACAGTCG,-0.128
4,TATATCCA,0.0679
5,AACCAGGG,-0.267
6,AATTGTCT,-0.0626
7,AGGGTTGG,-0.151
8,CAATTTTA,-0.0862
9,TACCGATA,0.285
10,AACCCAGC,-0.0399
11,GCGGACAC,0.0472
12,GCCTATAA,-0.146
13,GCCTCAGA,-0.0503
14,CGAACTCC,0.157
15,CAACCCCG,0.0831
16,AACAATAC,-0.134
17,ATTACAAA,0.0185
18,TCACCACA,-0.122
19,CAGGTATC,-0.0803
20,CATTTTTC,0.0291
21,CTTCGCAC,-0.165
22,TGGAACAA,-0.2
23,AATGCGCA,0.0503
24,AGTTACGG,0.0644
25,GTCTCATA,-0.0549

row,Sequence,PBM E-score
1,CAGACAGC,-0.0579
2,GTGCGTAA,-0.201
3,ACAAGAGC,-0.159
4,ATGTATTG,-0.0359
5,AATTCCTG,-0.0872
6,AAATCGAG,-0.0486
7,ACCAGGGG,-0.272
8,GGTTTGTA,0.0503
9,ACTAATAC,0.0783
10,CCATGTAC,-0.0703
11,CGGCCTTC,0.209
12,CGCTGCAC,-0.106
13,GCCGTAAC,-0.00304
14,CTGTTAAA,-0.172
15,CAAGCCAC,-0.315
16,AGACCCTA,-0.136
17,AAATACGC,0.126
18,AAGTCTTC,-0.108
19,ATTCAGCG,-0.00866
20,GACCCACA,-0.0227
21,AGATGTTC,-0.018
22,ACAATTCG,0.0597
23,CGGCACAA,0.285
24,AAATCCGC,0.111
25,ATACGAAA,0.0378

row,Sequence,PBM E-score
1,CCGCCCGA,0.324
2,GCCCACAA,-0.0391
3,ACGGCACC,0.0635
4,CATTCCTA,-0.17
5,ACTCCTTA,-0.0987
6,TCGAATCA,-0.227
7,AAGTATAA,0.0561
8,TCATTCCA,-0.0393
9,GTGCCGCA,0.0972
10,CAATGGCG,0.159
11,TCGAGGCA,-0.187
12,AGCTCGAA,0.142
13,CAGCCGGA,0.365
14,AATACTGC,0.0891
15,ACGCCGCA,-0.00168
16,TCCCTCCA,-0.18
17,CAGCGGTA,-0.00538
18,CATAGAAG,-0.184
19,AGCCTAGA,-0.239
20,CGTAGGGC,-0.195
21,AATTGACA,-0.0145
22,AAAAGCGC,-0.211
23,GAAATGGC,-0.0544
24,ACCTAAGT,0.00755
25,AACTAACC,0.201

row,Sequence,PBM E-score
1,ATTGTCAA,0.00767
2,CGAGAGCC,0.0795
3,CAGTTACC,-0.0377
4,ACGGGACT,0.185
5,GATAAATC,0.216
6,GCAACTTA,0.057
7,CCCTCGAA,-0.21
8,CATAGCCG,0.351
9,GTGCTAAA,-0.0409
10,ACCACTAC,-0.0952
11,TCGGAAAA,0.451
12,AATGACCA,0.0489
13,CGTGCACA,-0.193
14,AGTTCGAC,-0.124
15,ATGCATTC,-0.0941
16,GCTCCGCA,0.00455
17,AGCCAACG,-0.309
18,CAGAACAA,-0.148
19,CCTCGAGC,-0.0253
20,AGCGAACT,-0.24
21,GACATATC,-0.00643
22,CCAGGGCA,-0.21
